# Results taken from the supplement of paper PMC4166925.
# ± gives the standard deviation of the averaged measurements. Whole data set: some 33,000 sequences, median “E-score (dimensionless, -0.5 to 0.5)” near -0.046, cut for the highest 2% near 0.36. The list shows a part of the results.
# Tested on: T1, SpTbr T-box DNA-binding domain (GST fusion)
# T1 sequence: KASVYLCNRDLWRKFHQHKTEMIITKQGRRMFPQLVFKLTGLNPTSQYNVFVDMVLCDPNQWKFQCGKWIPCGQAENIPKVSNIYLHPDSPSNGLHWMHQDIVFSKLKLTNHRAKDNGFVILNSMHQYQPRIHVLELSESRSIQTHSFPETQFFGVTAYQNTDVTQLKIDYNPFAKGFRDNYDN
# Test: PBM E-score of 8-mer (E-score (dimensionless, -0.5 to 0.5)); Tbr is Tbrain of the sea star Patiria miniata (Pm) or the sea urchin Strongylocentrotus purpuratus (Sp); higher = stronger binding preference; most listed sequences are background and not binding sites
# Conditions: the construct has about 5 more residues each side
# Experimental: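 Universal protein-binding microarray (Agilent AMADID 016060, 60-bp probes with a 35-bp variable region) incubated with 200 nM GST-fused Strongylocentrotus purpuratus Tbr T-box DNA-binding domain (residues 362-554) in PBS pH 7.5. Scored for every ungapped 8-mer (given with its reverse complement) as E-score (range -0.5 to 0.5; >0.45 counts as bound) and Z-score of median probe intensity. Two replicate arrays (datasets 1 and 2).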
# 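Further: protein at 200 nM in PBS on universal double-stranded arrays.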
row,Sequence,PBM E-score of 8-mer
1,CGAAGAAC,-0.169 ± 0.03
2,AGTCTCTA,-0.171 ± 0.035
3,AATTAGTA,-0.0654 ± 0.035
4,GTGCGAGA,0.42 ± 0.0079
5,CGGTCGAG,-0.111 ± 0.033
6,CTCTCTCC,-0.00167 ± 0.082
7,ATTGCACG,0.086 ± 0.0037
8,CTCCCTGC,-0.116 ± 0.0035
9,ACACCTCG,0.4804 ± 0.0036
10,GAGGACGA,-0.108 ± 0.0027
11,CTTGCGGA,0.055 ± 0.09
12,ATGTGTGC,0.299 ± 0.0091
13,CATAACGA,-0.166 ± 0.013
14,TAGTGCAA,0.247 ± 0.024
15,CGCAATAA,-0.0582 ± 0.043
16,ATCTAAGA,-0.3493 ± 0.00096
17,ACGTAACA,0.0479 ± 0.058
18,GGACCGAA,-0.151 ± 0.097
19,AAGGGAAC,-0.163 ± 0.012
20,ACGGCCGT,0.139 ± 0.017
21,ATTACAGG,-0.0668 ± 0.008
22,ATGACAGA,-0.0153 ± 0.019
23,ACATATAA,-0.159 ± 0.013
24,GTTAGCCA,0.0563 ± 0.019
25,AACTACGT,-0.0858 ± 0.012

row,Sequence,PBM E-score of 8-mer
1,GCCGGCAC,0.19 ± 0.042
2,GGATGCAC,-0.141 ± 0.064
3,AGTTGGTC,-0.0262 ± 0.06
4,ATTCGAAA,0.01 ± 0.018
5,GGGGCCAC,0.0079 ± 0.0018
6,ACGCTCGG,-0.0977 ± 0.019
7,AACGCCCT,0.235 ± 0.0089
8,CGGAGGAG,-0.0431 ± 0.028
9,CAACAGCG,0.105 ± 0.035
10,CAAATCGC,0.265 ± 0.025
11,GAGGGACC,-0.244 ± 0.061
12,CTTAAGTC,-0.0735 ± 0.11
13,CAAGGAGA,-0.0986 ± 0.082
14,AAAACGAT,-0.0447 ± 0.022
15,CCGAACCG,-0.221 ± 0.0042
16,AGCGACAT,0.151 ± 0.018
17,ATTATACA,-0.248 ± 0.012
18,GGCGGTGA,0.0218 ± 0.022
19,ACCTTTAC,0.113 ± 0.043
20,CGCGCCCA,0.242 ± 0.045
21,TAACTTAA,-0.0659 ± 0.045
22,TATCAACA,0.0884 ± 0.0019
23,ACGGCTAA,-0.192 ± 0.021
24,GCAGTCGA,-0.114 ± 0.0086
25,AACAGTGC,0.0556 ± 0.0074

row,Sequence,PBM E-score of 8-mer
1,GAGACAAA,-0.0684 ± 0.007
2,CTTAATAA,-0.355 ± 0.044
3,CACGAGTG,0.229 ± 0.0061
4,GAAATAAC,0.18 ± 0.049
5,ACAGAAAG,-0.119 ± 0.026
6,AGAGTGTC,0.359 ± 0.0099
7,ATATGCAT,-0.167 ± 0.13
8,CAGGTCCC,-0.11 ± 0.016
9,AGCACATG,0.0968 ± 0.0055
10,GTATAGTA,-0.103 ± 0.013
11,CTCAAAGA,-0.222 ± 0.093
12,AATCTCGT,-0.0158 ± 0.029
13,CCTCACAA,0.233 ± 0.0063
14,TAAAAATA,0.0384 ± 0.033
15,ATGAAGTA,-0.246 ± 0.031
16,AGTTCAGC,-0.0991 ± 0.041
17,CGATTGGA,-0.213 ± 0.091
18,GTCGTCAA,0.271 ± 0.01
19,GAATATAC,-0.146 ± 0.013
20,AACAACAG,-0.00624 ± 0.0057
21,CAAGGACA,-0.0588 ± 0.033
22,ACTATAAA,-0.112 ± 0.081
23,GGGCACTA,-0.145 ± 0.036
24,ATATCTTG,-0.076 ± 0.03
25,AATCGACG,0.0974 ± 0.066

row,Sequence,PBM E-score of 8-mer
1,CTGGTAGC,0.0561 ± 0.069
2,CATAGTCG,0.0887 ± 0.043
3,CGTATTGA,-0.0911 ± 0.063
4,AAGAATGC,-0.174 ± 0.03
5,ACCCTCCG,-0.0714 ± 0.011
6,ACCGGACG,-0.132 ± 0.0078
7,AGCGCTTG,0.0663 ± 0.013
8,GTGGTAAC,0.207 ± 0.0039
9,CGTCAAAA,0.277 ± 0.013
10,ATATGGAA,-0.196 ± 0.053
11,ACGACTAC,0.0174 ± 0.024
12,GCTGTGAC,0.161 ± 0.042
13,TCTGTTCA,0.0551 ± 0.0088
14,CTATAGGA,-0.1 ± 0.061
15,ATCCTCCA,0.0475 ± 0.013
16,CAACAGTG,0.15 ± 0.0071
17,ACACCCCA,0.376 ± 0.013
18,CGATTGAG,-0.221 ± 0.044
19,ACTATGAG,-0.24 ± 0.033
20,GAATTATA,-0.111 ± 0.073
21,CTACTACA,-0.245 ± 0.014
22,AATGTCGA,0.049 ± 0.071
23,GGAAGAAC,-0.143 ± 0.018
24,CGACGACA,0.171 ± 0.11
25,AGGAGTCA,0.0241 ± 0.025

row,Sequence,PBM E-score of 8-mer
1,CGTTCGAG,-0.0941 ± 0.013
2,ACCACGGC,-0.0173 ± 0.051
3,CAATTGTC,0.223 ± 0.055
4,ACACTACG,0.3 ± 0.0087
5,GACTTATA,0.0117 ± 0.031
6,GCATTGTA,-0.043 ± 0.039
7,ATCTCGGA,-0.276 ± 0.03
8,AGTGTCGA,0.405 ± 0.0049
9,CGGGCTTC,-0.125 ± 0.019
10,ACAGGAAC,-0.071 ± 0.018
11,TTCATAAA,-0.055 ± 0.0017
12,GGCGACGA,0.232 ± 0.0069
13,AAATGCGA,-0.00257 ± 0.063
14,ACGTGGCA,0.251 ± 0.029
15,CCGCCTCG,-0.0478 ± 0.058
16,ACCCACGG,-0.121 ± 0.0078
17,AGGTTGTA,0.107 ± 0.053
18,CCTCCAAC,-0.056 ± 0.066
19,ACGATATA,-0.13 ± 0.0043
20,CACAGAAG,0.116 ± 0.014
21,TCATCCGA,-0.0874 ± 0.12
22,TAGCAGCA,0.0493 ± 0.088
23,CCGACGCG,0.148 ± 0.077
24,ACATGCTC,-0.0375 ± 0.058
25,TAATGGGA,-0.0365 ± 0.045

row,Sequence,PBM E-score of 8-mer
1,ATATAAGC,-0.193 ± 0.077
2,CCGTGCCA,0.147 ± 0.025
3,CACGAAAC,0.176 ± 0.055
4,GGCAAAAC,0.0487 ± 0.0086
5,GCAATACC,-0.0236 ± 0.082
6,GCGACCTA,0.0146 ± 0.002
7,AGGACAAC,-0.224 ± 0.031
8,CCTAAGCG,-0.0819 ± 0.022
9,GCTGGTGA,0.103 ± 0.087
10,ATAAAAGG,-0.00138 ± 0.13
11,GAAATTTA,-0.17 ± 0.12
12,GGAAAGAC,-0.0417 ± 0.04
13,AGTCCAAG,-0.396 ± 0.015
14,TCTATTAA,-0.0316 ± 0.07
15,CCGTCATC,0.028 ± 0.045
16,ATGATTCA,-0.139 ± 0.042
17,AGATTAGA,-0.263 ± 0.014
18,GAGCTGCA,0.0629 ± 0.08
19,AAGTTCGT,-0.0544 ± 0.0035
20,ATGACCTA,-0.132 ± 0.046
21,CGCGCCCC,0.186 ± 0.033
22,ACTAATCT,-0.0913 ± 0.065
23,AGGCTGGA,-0.0423 ± 0.056
24,CATCCGCC,-0.0962 ± 0.054
25,ACACGATC,0.21 ± 0.055

row,Sequence,PBM E-score of 8-mer
1,CTTTATAC,-0.145 ± 0.054
2,ACAAGTAA,0.0434 ± 0.023
3,CGCCAGAC,0.0647 ± 0.033
4,CAGACTCC,-0.201 ± 0.021
5,GAATACCC,-0.0688 ± 0.056
6,GCCGGAGA,-0.0821 ± 0.065
7,CTGCGCTA,-0.02 ± 0.019
8,CCATGACG,-0.213 ± 0.026
9,AGACGAGC,-0.248 ± 0.016
10,GCCTCCAA,-0.136 ± 0.0096
11,TACGAGAA,-0.0475 ± 0.029
12,CCGCATCG,-0.0523 ± 0.1
13,TCGCGAAA,0.403 ± 0.026
14,TGAAATAA,0.0629 ± 0.071
15,CTAAAATC,-0.0092 ± 0.037
16,GCTTTTAA,-0.1 ± 0.031
17,AACAGGAG,-0.00974 ± 0.02
18,CGCGTGAC,0.355 ± 0.02
19,GTGGTACA,-0.0977 ± 0.016
20,ACCGCTTG,0.0927 ± 0.016
21,CAACGGGA,-0.118 ± 0.12
22,CGACATCC,0.0466 ± 0.024
